The whole screen tested about 310,000 compounds, of which about 14,000 (4.5%) showed an effect of 50% or more. Effects have a minus sign here. This is one part of the list.
What follows are compounds tested against human ether-à-go-go-related gene (hERG) potassium channel (human, UniProt Q12809) (assay: primary screen, population patch clamp on CHO cells stably expressing hERG).
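Further: peak tail current of the secondary pulse compared with the same well before compound.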

human ether-à-go-go-related gene (hERG) potassium channel, sequence (Q12809 whole entry, looked up): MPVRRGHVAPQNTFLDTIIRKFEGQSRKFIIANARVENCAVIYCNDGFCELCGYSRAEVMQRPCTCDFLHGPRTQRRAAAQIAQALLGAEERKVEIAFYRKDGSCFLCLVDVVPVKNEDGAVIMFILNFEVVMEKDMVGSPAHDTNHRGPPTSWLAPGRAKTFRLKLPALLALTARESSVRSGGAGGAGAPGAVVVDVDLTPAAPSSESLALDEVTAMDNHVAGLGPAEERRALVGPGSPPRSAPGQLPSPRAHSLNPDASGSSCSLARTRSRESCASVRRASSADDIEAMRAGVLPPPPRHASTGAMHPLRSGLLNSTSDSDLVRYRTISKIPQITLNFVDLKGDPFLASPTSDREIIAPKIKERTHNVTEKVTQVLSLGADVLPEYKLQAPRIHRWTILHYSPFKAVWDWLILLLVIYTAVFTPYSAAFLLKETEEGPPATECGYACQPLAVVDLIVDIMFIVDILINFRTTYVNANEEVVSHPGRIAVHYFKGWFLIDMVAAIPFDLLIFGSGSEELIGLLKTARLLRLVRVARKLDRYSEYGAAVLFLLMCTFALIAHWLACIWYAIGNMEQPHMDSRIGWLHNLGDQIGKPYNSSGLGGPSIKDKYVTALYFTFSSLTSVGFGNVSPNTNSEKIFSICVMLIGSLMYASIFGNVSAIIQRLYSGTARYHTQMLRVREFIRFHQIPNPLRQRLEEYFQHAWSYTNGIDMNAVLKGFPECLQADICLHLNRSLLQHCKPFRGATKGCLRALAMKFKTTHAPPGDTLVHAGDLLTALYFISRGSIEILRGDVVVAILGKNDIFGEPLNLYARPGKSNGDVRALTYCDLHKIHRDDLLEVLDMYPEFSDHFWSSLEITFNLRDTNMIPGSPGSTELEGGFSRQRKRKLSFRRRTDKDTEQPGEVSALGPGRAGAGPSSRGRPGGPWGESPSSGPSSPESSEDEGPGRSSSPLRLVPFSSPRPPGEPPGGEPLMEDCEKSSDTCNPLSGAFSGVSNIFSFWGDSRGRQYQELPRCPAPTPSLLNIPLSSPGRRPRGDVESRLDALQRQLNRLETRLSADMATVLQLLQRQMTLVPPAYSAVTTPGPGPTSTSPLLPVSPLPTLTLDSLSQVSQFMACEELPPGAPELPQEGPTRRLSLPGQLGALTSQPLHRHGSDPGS

Structure (SMILES)	hERG current change (%, negative = inhibition) at 10uM [%]
COc1ccc(C(=O)COC(=O)CCN=C2NS(=O)(=O)c3ccccc32)cc1OC	-32.1
CC(C)c1ccc(S(=O)(=O)/N=C2/C=C(Sc3ncn[nH]3)C(=O)c3ccccc32)cc1	27.8
Cc1cccc(C(=O)NNC(=O)CN2C(=O)c3ccccc3C2=O)c1	-6.94
CC(C)c1nc(-c2ccccc2)c(-c2ccccc2)[nH]1	-6.02
N#Cc1nc(-c2ccc(F)cc2)oc1N1CCN(C(=O)c2ccco2)CC1	-75.2
O=C(COC(=O)c1cccs1)NC1CCCC1	17.7
COc1ccc(/C=C/C(=O)O)cc1S(=O)(=O)N1CCCCC1	21
COc1ccc(CNCC(=O)Nc2cc(C)nn2-c2nc(C)cc(C)n2)cc1OC	-56.8
CCCN1CCC(=O)N([C@H](CSc2ccc(Br)cc2)Cc2ccccc2)CC1	-71.2
CC(=O)N1CCN(C(=S)Nc2ccc(Oc3ccccc3)cc2)CC1	-22.6
CCCc1cc(NCc2ccccn2)n2c(nc3ccccc32)c1C#N	-3.92
NC(N)=N/N=C/c1ccc(Cl)cc1Cl	-22.8
C=CCn1c(SC/C=C/c2ccccc2)nnc1-c1sc(N)nc1C	-12.4
O=C(CN1C(=O)NC2(CCCCC2)C1=O)NCCC1=CCCCC1	6.02
O=C(NCc1cccs1)c1cnc2ccccn2c1=O	-14.2
CC1CC(C)CN(CCCNC(=O)CN2C(=O)CSc3ccc(S(=O)(=O)N4CCOCC4)cc32)C1 (centres unmarked)	15.8
Cc1nc(C(C)N(C)Cc2nc(-c3ccc4c(c3)OCO4)no2)c(C)s1 (centres unmarked)	5.52
Cc1cc(NC(=O)CCl)no1	16.6
CCCCN1C(=O)C(=O)N(c2ccccc2)C1=S	7.88
Cc1ccc(NC(=O)c2cccc(Oc3ccc([N+](=O)[O-])cc3)c2)c(C(=O)O)c1	4.79
COc1ccccc1/C=N/NC(=O)c1ccc2c(c1)OCO2	7.71
Cc1c(O)ccc(/C=N/Nc2ncccc2[N+](=O)[O-])c1O	15.5
CC(=O)OCC1=C(C(=O)O)N2C(=O)C(NC(=O)CCn3nc(C(F)(F)F)c(Br)c3C3CC3)C2SC1 (centres unmarked)	5.62

Structure (SMILES)	hERG current change (%, negative = inhibition) at 10uM [%]
O=C(COc1ccc(-n2cnnn2)cc1)N1CCN(c2ccc(F)cc2)CC1	-71.5
NC(=O)c1ccc(Cl)c2ccccc12	22.3
COc1cc(NC(=O)c2ccc3nsnc3c2)cc(OC)c1OC	2.2
O=C(O/N=C1\CCS(=O)(=O)c2sccc21)c1c(F)cccc1F	5.26
Cc1onc(-c2ccccc2)c1C(=O)N(Cc1ccccc1)C(C)C	-23.4
O=C(NC(=S)NCc1ccccc1)c1cccnc1	2.67
COc1ccccc1NC(=O)Cn1cc(C(=O)C2CC2)c2ccccc21	-4.32
CCc1ccc(NC(=O)CCC(=O)N2CCSc3ccccc32)cc1	-1.57
COc1ccc(Cl)cc1/C=C/c1ccc2cccc(O)c2n1	15.7
CC(=O)Nc1ccc(S(=O)(=O)N(Cc2cccnc2)Cc2cc3ccc(C)cc3[nH]c2=O)cc1	18.6
COc1ccccc1NS(=O)(=O)NC(=O)c1c(C)[nH]c2ccccc12	17.6
Cc1ccccc1NC(=O)C(=O)NCCCN1CCCC1=O	17.7
O=S(=O)(NCc1cccnc1)c1ccc(Cl)c2ccccc12	-2.87
N#Cc1cc(S(=O)(=O)c2ccc(F)cc2)c(N)[nH]c1=O	1.93
COC1CCN(C(=O)c2ccc3oc(C(C)C)nc3c2)CC1	10.9
Cc1ccc(-c2cc(-c3ccccc3)cc(-c3ccccc3)[n+]2-c2ccccc2)cc1.[O-][Cl+3]([O-])([O-])[O-]	-82.1
COc1ccc(Cc2nnc(Nc3ccc(C)cc3)o2)cc1OC	9.6
CC(=O)N1CCc2cc(S(=O)(=O)NCCC(=O)N3CCN(Cc4ccccc4)CC3)ccc21	-17.3
CN(C(=O)COC(=O)CNC(=O)C12CC3CC(CC(C3)C1)C2)c1ccccc1	-0.178
COc1ccc2nc(C)cc(Nc3ccc(N4CCN(C)CC4)cc3)c2c1	-1.75
O=[N+]([O-])c1cccc(/C=C/c2nc(C=Nc3ccc4ccccc4c3)c(O)o2)c1	-8.7
N#CCN1C(=O)C2CCCN2c2ccc(S(=O)(=O)N3CCOCC3)cc21 (centres unmarked)	19.6
C=CCNC(=O)NC(=O)COn1nnc2ccc(S(=O)(=O)N(C)C)cc21	5.69

Structure (SMILES)	hERG current change (%, negative = inhibition) at 10uM [%]
COc1ccc(C(=O)CSc2nc3ccccc3n2CC(=O)c2ccccc2)cc1	-9.94
CC(C)Cc1nc(SCc2cccnc2)c2c(=O)n(C)c(=O)n(C)c2n1	-8.32
CC(=O)N(C1=C(N2CCOCC2)C(=O)c2ccccc2C1=O)c1ccc(C(=O)O)cc1	44.2
CCN(CC)c1ccc(C(=O)OCc2c(C)noc2C)cc1	-3.32
CCOC(=O)c1[nH]c(Cc2[nH]c(C(=O)OCC)c(C)c2CCC(=O)OC)c(CCC(=O)OC)c1C	3.71
Cc1ccccc1NC(=O)CNC(=O)Cc1cccc2ccccc12	1.16
COc1cc(OC)cc(-c2n[nH]c(=S)n2-c2cc(OC)ccc2OC)c1	-4.14
CCOc1ccc(C(C(=O)NC2CCCCC2)N(C(=O)c2csnn2)C2CC2)cc1 (centres unmarked)	10.3
Cc1ccc2[nH]cc(CCNC(=O)c3cccs3)c2c1	0.562
Cc1ccc(-n2nc3c(=O)n(CCCC(=O)NC4CCC(C)CC4)nc(C)c3c2C)cc1 (centres unmarked)	-8.63
CC(C)(C)NS(=O)(=O)c1ccc(/C=C/C(=O)O)cc1	18.2
COc1ccc(Oc2nc(Oc3ccc(OC)cc3)nc(Oc3ccc(OC)cc3)n2)cc1	-1.96
CCOc1cc(C(=O)Nc2ccc(S(=O)(=O)N3CCOCC3)cc2)cc(OCC)c1OCC	10.9
Cc1cc2c(cc1C)NC(=O)CC(C(F)(F)C(F)(F)C(F)(F)F)=N2	9.6
CCOC(=O)C1(Cc2cccc(OC)c2)CCCN(C(=O)CNC(C)=O)C1 (centres unmarked)	14.9
COc1cccc(CN2CCCC(C(=O)N3CCCCC3)C2)c1.O=C(O)C(=O)O (centres unmarked)	5.13
O=C1CSC(c2ccccc2F)N1 (centres unmarked)	9.46
O=C(Nc1nccs1)c1ccc(N2CCOCC2)c([N+](=O)[O-])c1	2.14
O=C(NCC1CCCO1)C(=O)NCC(c1ccco1)N1CCN(c2ccc(F)cc2)CC1 (centres unmarked)	-12.7
O=C(Nc1nnc(C2CC2)s1)c1ccc(Cl)nc1	0.538
O=C1CN(C(=O)/C=C/c2cccc(Cl)c2)c2ccccc2N1	-21.4
COc1ccc(-c2nc3cc([N+](=O)[O-])ccc3o2)cc1	9.39
COc1ccc2c(c1)cc(C(O)c1ccccn1)n2S(=O)(=O)c1ccccc1 (centres unmarked)	12

Structure (SMILES)	hERG current change (%, negative = inhibition) at 10uM [%]
CC(C)CC(=O)Nc1nc(=S)ss1	16.7
CCCCCC(=O)N/N=C/c1ccc([N+](=O)[O-])o1	-26.2
CC(C)c1ccc(NC2CCCN(C(=O)C3=NN(C)C(=O)CC3)C2)cc1 (centres unmarked)	8.34
CC(=O)Nc1ccc(NC(=O)C2C3C=CC(C3)C2C(=O)O)cc1 (centres unmarked)	9.11
COc1cccc(CCC(=O)O)c1OC	15.2
COc1ccc(CCNc2nc(C)cc(C)c2C#N)cc1OC	12.1
O=C(O)C1CCCN1S(=O)(=O)c1ccccc1 (centres unmarked)	-6.27
Cn1c(SCc2nn[nH]n2)nc2c1c(=O)n(Cc1ccccc1Cl)c(=O)n2C	-2.46
CCOC(=O)C1(Cc2cccc(OC)c2)CCCN(C(=O)CCSC)C1 (centres unmarked)	9.52
Cc1cc(NC(=O)CSc2nnc(Cc3ccccc3)o2)no1	14.4
COc1cccc(CN(C(=O)/C=C/c2ccco2)C2CCS(=O)(=O)C2)c1 (centres unmarked)	-13.1
COC(=O)c1ccc(COc2ccc3c(C)c(C)c(=O)oc3c2)o1	-2.99
COc1ccc(N(C(C)C(=O)NN=C2CCCCCCC2)S(C)(=O)=O)cc1 (centres unmarked)	4.3
CC(C)CN1CCN(Cc2ccc(CN3CCCCC3)s2)CC1CCO (centres unmarked)	16.3
C[C@@H](NCCc1ccc(O)cc1)[C@@H](O)c1ccc(O)cc1.Cl	-11.5
Cc1nc(C)n(CCNS(=O)(=O)c2ccccc2)n1	18.8
COc1cc(NC(=O)COc2cc(O)c3c(c2)OC(C)(C)CC3=O)cc(OC)c1	-12.5
Cc1cc(C)cc(NC(=S)NCCCN2CCOCC2)c1	-18.5
Cc1ccc(NC(=O)c2[nH]cnc2C(=O)NN)cc1	18.9
CCCCNc1nnc(SCC(=O)c2c(N)n(CCC)c(=O)[nH]c2=O)s1	-19.3

Reference: paper PMC4336329 (PLoS ONE, 2015)
